Assay results published in PubChem BioAssay AID624173 (National Center for Advancing Translational Sciences (NCATS), 2012).
Values joined by “and” are separate entries in the source; they are usually repeats but may differ in a detail not shown here. Identical values can stand only once. The campaign covered roughly 410,000 compounds. About 490 (0.12%) were called active. Inconclusive means that the source gave no clear call. Such entries were picked first, then a sample of the others. The call rests on the fitted dose curve; in most records, active means well fitted inhibition curve with a large enough effect; inconclusive means small, poorly fitted or top-dose-only effect; inactive means flat fitted curve, though single readings scatter. Potencies beside an inconclusive call are fits to weak or partial responses and may not hold up.

Target: pyruvate kinase (Trypanosoma brucei) (UniProt Q57TT1)
Assay: qHTS of Trypanosoma Brucei Inhibitors; further: nearly all actives have a fitted effect of over 50% in size
Details: TbPYK enzyme, Kinase-Glo Plus ATP luminescence, 45 min; series mostly up to 76.8 µM; activity, negative = inhibition: at the top concentration
How it was run: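 Screened from lowest to highest concentration, compounds were pinned into TbPYK/substrate mixtures, and ADP (130 uM final) was added. Plates sat at room temperature for 45 min prior to Kinase-Glo Plus detection by luminescence.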
On the % scale 0 is the no-effect control and ±100 the full control effect; potency means the concentration at half of the fitted maximal effect; tags describe the fitted curve by direction and shape.

Row | SMILES | Potency | activity, negative = inhibition
1 | COCCn1c(SCC(=O)c2ccc(F)cc2)nnc1C(C)C | inconclusive: 50.1 µM [inhibitor, single point] | –
2 | Cc1cccc(-c2nnc(SCC3CNC(=O)O3)n2-c2ccc(Cl)cc2)c1 (centres undefined) | inconclusive: 28.2 µM [inhibitor, partial curve, poor fit] | –
3 | CC(=O)Oc1ccc(/C=C/c2nc3ccccc3c(=O)o2)cc1 | inconclusive: 7.08 µM [inhibitor, partial curve] | –
4 | CC(/C=N/n1c(-c2ccc(Cl)cc2)n[nH]c1=S)=C\c1ccco1 | inconclusive: 0.891 µM [inhibitor, full curve, poor fit] | –
5 | CCOC(=O)c1ccc(NC(=O)c2cc(=O)c3ccc(C)c(C)c3o2)cc1 | – | inactive: -0.726%
6 | FC(F)(F)c1n[nH]c(=S)n1/N=C/c1ccco1 | inconclusive: 22.4 µM [inhibitor, partial curve] | –
7 | Cc1ccc(C(=O)NCc2ccc3c(c2)OCO3)o1 | – | inactive: -2.22%
8 | CCC(C)n1c(OC)nc2c1c(=O)n(C)c(=O)n2C (centres undefined) | inconclusive: 50.1 µM [inhibitor, single point] | –
9 | FC(F)(F)c1cccc(NCc2n[nH]c(=S)n2C2CCCCC2)c1 | active: 12.6 µM | –
10 | Cc1onc(-c2ccccc2)c1-c1n[nH]c(=S)n1-c1ccccc1Cl | inconclusive: 11.2 µM [inhibitor, partial curve, poor fit] | –
11 | COc1cc([N+](=O)[O-])ccc1NC(=O)N1CCCCCC1 | – | inactive: 7.38%
12 | Cc1ccccc1-n1c(-c2csc3ccccc23)n[nH]c1=S | inconclusive: 3.98 µM [inhibitor, full curve, poor fit] | –
13 | O=C(O)C1OC(Oc2cc3oc(-c4ccccc4)cc(=O)c3c(O)c2O)C(O)C(O)C1O (centres undefined) | inconclusive: 11.2 µM [inhibitor, partial curve] | –
14 | S=C(NCc1ccccc1)NCc1ccccc1 | – | inactive: 19.6%
15 | CC(C)NC(=O)N1CCCC2(CCN(C(=O)c3cc(C(F)(F)F)cc(C(F)(F)F)c3)CC2)C1 | – | inactive: -3.34%
16 | Cn1c(CCN2CCN(c3ccccc3)CC2)nc2cc(NC(=O)c3ccco3)ccc21 | – | inactive: -4.31%
17 | S=c1[nH]nc(-c2ccc(Br)cc2)n1Cc1ccccc1 | inconclusive: 4.47 µM [inhibitor, partial curve, poor fit] | –
18 | C[N+]12CCC(CC1)C(=C(c1ccccc1)c1ccccc1)C2 | inconclusive: 39.8 µM [inhibitor, partial curve] | –
19 | O=c1oc2ccccc2cc1-c1ccccc1 | – | inactive: 2.61%
20 | Nc1cc2sc(-c3ccc(C(=O)O)cc3)nc2cc1Cl | inconclusive: 17.8 µM [inhibitor, partial curve] | –
21 | CC(=O)c1ccc(N2CCN(C(=O)c3nn(C)c4c3CS(=O)(=O)c3ccccc3-4)CC2)cc1 | inconclusive: 50.1 µM [inhibitor, single point] | –
22 | CC(C)Sc1nc2c(c(=O)[nH]c(=O)n2C)n1Cc1ccc(Cl)cc1 | inconclusive: 28.2 µM [inhibitor, partial curve, poor fit] | –
23 | Cc1c(/C=C/C(=O)c2cccs2)cnn1C | inconclusive: 50.1 µM [inhibitor, single point] | –

Row | SMILES | Potency | activity, negative = inhibition
24 | Cc1ccccc1-n1c(-c2ccncc2)n[nH]c1=S | inconclusive: 12.6 µM [inhibitor, partial curve, poor fit] | –
25 | O=C(Nc1ccc(Cl)cc1)OCc1ccccn1 | – | inactive: 4.25%
26 | CN=c1scc(-c2ccccc2F)n1/N=C/c1ccc(O)c(O)c1O | inconclusive: 8.91 µM [inhibitor, partial curve, poor fit] | –
27 | O=[N+]([O-])c1cc(C(F)(F)F)cc([N+](=O)[O-])c1Sc1n[nH]c(C(F)(F)F)n1 | inconclusive: 28.2 µM [inhibitor, partial curve] | –
28 | COc1ccccc1CNC(=O)Nc1cccs1 | inconclusive: 39.8 µM [inhibitor, partial curve, poor fit] | –
29 | CCCCn1c(O)c(C(C)=Nc2c(C)n(C)n(-c3ccccc3)c2=O)c(=O)[nH]c1=O | – | inactive: -2.27%
30 | COc1ccc(-n2c(SCC(=O)N3CCCCC3C)nnc2-c2cccnc2)cc1 (centres undefined) | – | inactive: -29.4%
31 | Cc1ccc2nc(NC(=O)C3CCN(S(=O)(=O)c4cccs4)CC3)sc2c1 | inconclusive: 50.1 µM [inhibitor, single point] | –
32 | O=C(O)c1cc(Cl)c2c(c1)[C@@H]1C=CC[C@@H]1[C@H](c1ccc(S(=O)(=O)N3CCOCC3)cc1)N2 | inconclusive: 15.8 µM [inhibitor, partial curve, poor fit] | –
33 | O=C(O)c1ccc(-n2cc(-c3cc4ccccc4oc3=O)[nH]c2=S)cc1 | inconclusive: 3.16 µM [inhibitor, full curve] | –
34 | COC(=O)c1cnc(SCC(=O)c2ccccc2)n1C | – | inactive: -20.8%
35 | COc1ccc(NC(=O)c2c(NCc3cccc(OC)c3)sc3c2CCC3)cc1 | inconclusive: 50.1 µM [inhibitor, single point] | –
36 | CCCOc1ccc(C(=O)Nc2ccc(NC(=O)c3cccc(Cl)c3)cc2)cc1 | – | inactive: 6.87%
37 | Cc1c(C(=O)NC(C)CCc2ccccc2)cccc1[N+](=O)[O-] (centres undefined) | inconclusive: 39.8 µM [inhibitor, single point] | –
38 | COc1ccc(Cl)cc1-c1nc(N)nc(NC2CCCCC2)n1 | inconclusive: 50.1 µM [inhibitor, single point] | –
39 | CCc1ccccc1N1CC23C=CC(O2)C(C(=O)OCC(C)C)C3C1=O (centres undefined) | – | inactive: -2%
40 | Cc1ccc(NC(=O)COc2ccccc2C(=O)Nc2ccccc2)cc1Cl | – | inactive: 2.84%
41 | CC(C)N=C1CCCC1C(=S)SSC(=S)C1CCCC1=NC(C)C (centres undefined) | inconclusive: 20 µM [inhibitor, partial curve] | –
42 | S=c1[nH]nc(-c2cccs2)n1/N=C/c1cccs1 | inconclusive: 8.91 µM [inhibitor, partial curve] | –
43 | Cc1ccc2nc(-c3ccc(NC(=O)Cc4cccs4)cc3)[nH]c2c1 | – | inactive: -3.52%
44 | CCN(CC)CCNC(=O)CCCCn1c(=S)[nH]c2c([nH]c3ccc(OC)cc32)c1=O | inconclusive: 35.5 µM [inhibitor, partial curve, poor fit] | –
45 | CC(C)NCCOc1cccc(Br)c1 | – | inactive: 0.811%
46 | O=C(NCc1ccco1)C1CCN(C(=O)Cc2ccccc2)CC1 | inconclusive: 50.1 µM [inhibitor, single point] | –

Row | SMILES | Potency | activity, negative = inhibition
47 | S=c1[nH]c2ccc(Cl)cc2[nH]1 | inconclusive: 44.7 µM [inhibitor, partial curve, poor fit] | –
48 | CCNc1nc(OCC)nc(N2CCC(Cc3ccccc3)CC2)n1 | inconclusive: 44.7 µM [inhibitor, single point] | –
49 | CCc1ccc(-n2c(Cc3ccccc3)n[nH]c2=S)cc1 | active: 3.98 µM | –
50 | S=c1[nH]nc(Nc2ccccc2Cl)s1 | inconclusive: 14.1 µM [inhibitor, partial curve, poor fit] | –
51 | Cc1cc(C)c(S(=O)(=O)NCC(c2ccco2)N2CCc3ccccc3C2)c(C)c1 (centres undefined) | – | inactive: 8.03%
52 | NC(=O)c1cc(N2C(=O)C=CC2=O)ccc1Cl | inconclusive: 50.1 µM [inhibitor, single point] | –
53 | COc1ccc(NC(=S)N(CCCN2CCC(C)CC2)Cc2cccs2)cc1Cl | inconclusive: 28.2 µM [inhibitor, partial curve] | –
54 | Cc1ccc(NC(=S)NNc2ccc(C(=O)O)cc2[N+](=O)[O-])cc1C | inconclusive: 3.16 µM [inhibitor, full curve, poor fit] | –
55 | N#Cc1c(NC(=O)CCC(=O)O)sc2c1CCCCC2 | active: 35.5 µM | –
56 | O=C1NN(c2ccccc2)C(=O)/C1=C\c1cccc(OC(=O)c2cccs2)c1 | inconclusive: 31.6 µM [inhibitor, single point] | –
57 | CCOC(=O)N1CCc2c(sc(NCc3ccc(N(C)C)cc3)c2C(=O)Nc2ccc(OC)cc2)C1 | inconclusive: 17.8 µM [inhibitor, partial curve] | –
58 | S=c1[nH]nc(-c2cc(-c3ccco3)[nH]n2)n1-c1cccc2ccccc12 | inconclusive: 2 µM [inhibitor, full curve, poor fit] | –
59 | O=c1c(C(c2ccc(O)cc2)c2c(O)nc3n(c2=O)CCS3)c(O)nc2n1CCS2 | inconclusive: 8.91 µM [inhibitor, partial curve] | –
60 | Cc1ccc2c(C(=O)CN3CCSCC3)c(C)[nH]c2c1 | inconclusive: 35.5 µM [inhibitor, single point] | –
61 | O=c1c2cc(N3CCOCC3)ccc2[nH]c(=S)n1Cc1ccco1 | inconclusive: 31.6 µM [inhibitor, partial curve, poor fit] | –
62 | CCCCn1c(-c2cccnc2)n[nH]c1=S | inconclusive: 6.31 µM [inhibitor, partial curve] | –
63 | CCOc1ccc(NC(=O)COC(=O)Cn2cnc3ccccc32)cc1 | – | inactive: 4.41%
64 | Cc1ccc(/C=C/C(=O)Nc2ccc(S(N)(=O)=O)cc2)o1 | inconclusive: 39.8 µM [inhibitor, partial curve] and inconclusive: 28.2 µM [inhibitor, partial curve, poor fit] | –
65 | CCCCCCCCCCCCCCCCOCCOCCOCCOCCOCCOCCOCCOCCOCCOCCOCCOCCOCCOCCOCCOCCOCCOCCOCCOCCO | – | inactive: 3.16%
66 | Oc1c(C(c2ccc(F)cc2)N2CCc3ccccc3C2)sc2ncnn12 (centres undefined) | inconclusive: 50.1 µM [inhibitor, single point] | –
67 | CC1CCc2c(C(=O)NCc3ccccn3)csc2C1 (centres undefined) | inconclusive: 7.94 µM [inhibitor, full curve, poor fit] | –
68 | COc1ccc(-c2cc3ncc(C(C)=O)c(C)n3n2)cc1 | – | inactive: 7.32%
69 | CC(C)c1cnc2c(c1SCc1cccc(F)c1)c(=O)n(C)c(=O)n2C | inconclusive: 39.8 µM [inhibitor, single point] | –
